Laboratory results: the supplement of paper PMC4604168 (melanoma cell lines)
Some of the results follow. Repeats are few or missing, and single values can be far off.

Legend:
Assay in all cases: cell count relative to DMSO control; melanoma cells; higher = more viable cells
Conditions in all cases: library dose: standard library concentration; 72 h
A101D = test system: A101D
A2058 = test system: A2058
A375 = test system: A375
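Also: cells treated in 1,536-well plates, then fixed and DAPI-stained, with nuclei counted from automated high-throughput microscope images.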

Row | Compound | cell count (A101D) | cell count (A2058) | cell count (A375)
1 | C=C(c1ccc(C(=O)O)cc1)c1cc2c(cc1C)C(C)(C)CCC2(C)C [Bexarotene] + COCC[n+]1c2c(n(Cc3cnccn3)c1C)C(=O)c1ccccc1C2=O [YM155] (first compound 10 µM, partner dose 0.002 µM) | 89.7% | 39.8% | 78.8%
2 | CN(c1ncccc1CNc1nc(Nc2ccc3c(c2)CC(=O)N3)ncc1C(F)(F)F)S(C)(=O)=O + CC1(C)NC(=O)N(c2ccc([N+](=O)[O-])c(C(F)(F)F)c2)C1=O [nilutamide] (first compound 0.4 µM, partner dose 5 µM) | 82.1% | 67.4% | 75.3%
3 | CS(=O)(=O)c1ccc(C(=O)Nc2ccc(Cl)c(-c3ccccn3)c2)c(Cl)c1 [vismodegib] + Cc1ccc(NC(=O)c2cccc(N(C)C)c2)cc1NC(=O)c1ccc(O)cc1 [ZM336372] (first compound 5 µM, partner dose 10 µM) | 117% | 130% | 99%
4 | CN(c1ncccc1CNc1nc(Nc2ccc3c(c2)CC(=O)N3)ncc1C(F)(F)F)S(C)(=O)=O + Nc1ccn([C@@H]2O[C@H](CO)[C@@H](O)C2(F)F)c(=O)n1 [gemcitabine] (first compound 0.4 µM, partner dose 0.002 µM) | 72.9% | 45.1% | 56.8%
5 | C=C(c1ccc(C(=O)O)cc1)c1cc2c(cc1C)C(C)(C)CCC2(C)C [Bexarotene] + Nc1nc(F)nc2c1ncn2[C@@H]1O[C@H](CO)[C@@H](O)[C@@H]1O [fludarabine] (first compound 10 µM, partner dose 1 µM) | 82.5% | 92.5% | 51.7%
6 | CCCS(=O)(=O)Nc1ccc(F)c(C(=O)c2c[nH]c3ncc(Cl)cc23)c1F + NCC(=O)Nc1ccc(-n2nc(C(F)(F)F)cc2-c2ccc3c(ccc4ccccc43)c2)cc1 [OSU03012] (first compound 0.4 µM, partner dose 5 µM) | 73.4% | 85.3% | 46.6%
7 | CN(c1ncccc1CNc1nc(Nc2ccc3c(c2)CC(=O)N3)ncc1C(F)(F)F)S(C)(=O)=O + Nc1ncn([C@H]2C[C@H](O)[C@@H](CO)O2)c(=O)n1 [decitabine] (first compound 0.4 µM, partner dose 0.5 µM) | 102% | 61.8% | 68.2%
8 | C=C(c1ccc(C(=O)O)cc1)c1cc2c(cc1C)C(C)(C)CCC2(C)C [Bexarotene] + C=CCn1c(=O)c2cnc(Nc3ccc(N4CCN(C)CC4)cc3)nc2n1-c1cccc(C(C)(C)O)n1 [MK1775] (first compound 10 µM, partner dose 0.1 µM) | 60.8% | 96.3% | 70.8%
9 | CN(c1ncccc1CNc1nc(Nc2ccc3c(c2)CC(=O)N3)ncc1C(F)(F)F)S(C)(=O)=O + Cc1cc(Nc2cc(N3CCN(C)CC3)nc(/C=C/c3ccccc3)n2)n[nH]1 [ENMD2076] (first compound 0.4 µM, partner dose 0.2 µM) | 71.3% | 69.9% | 50.6%
10 | CCCS(=O)(=O)Nc1ccc(F)c(C(=O)c2c[nH]c3ncc(Cl)cc23)c1F + C[C@@H]1CCN(C(=O)CC#N)C[C@@H]1N(C)c1ncnc2[nH]ccc12 [CP690550] (first compound 0.4 µM, partner dose 5 µM) | 67.8% | 86.7% | 91.9%
11 | CS(=O)(=O)c1ccc(C(=O)Nc2ccc(Cl)c(-c3ccccn3)c2)c(Cl)c1 [vismodegib] + O=C(O)[C@@H]1[O][Sb](=[O])([O][Sb]2(=[O])[O][C@H]([C@H](O)CO)[C@H](O)[C@H](C(=O)O)[O]2)[O][C@H]([C@H](O)CO)[C@@H]1O [stibogluconate] (first compound 5 µM, partner dose 10 µM) | 106% | 82% | 118%
12 | NC1(c2ccc(-c3nc4ccn5c(=O)[nH]nc5c4cc3-c3ccccc3)cc2)CCC1 + Nc1ncn([C@H]2C[C@H](O)[C@@H](CO)O2)c(=O)n1 [decitabine] (first compound 2 µM, partner dose 0.5 µM) | 76.9% | 63.6% | 111%
13 | CS(=O)(=O)c1ccc(C(=O)Nc2ccc(Cl)c(-c3ccccn3)c2)c(Cl)c1 [vismodegib] + C[C@@H]1CCN(C(=O)CC#N)C[C@@H]1N(C)c1ncnc2[nH]ccc12 [CP690550] (first compound 5 µM, partner dose 5 µM) | 126% | 99.9% | 89.9%
14 | CN(c1ncccc1CNc1nc(Nc2ccc3c(c2)CC(=O)N3)ncc1C(F)(F)F)S(C)(=O)=O + Cc1ccc(NC(=O)c2cccc(N(C)C)c2)cc1NC(=O)c1ccc(O)cc1 [ZM336372] (first compound 0.4 µM, partner dose 10 µM) | 83.8% | 77.4% | 67.8%
15 | CN(c1ncccc1CNc1nc(Nc2ccc3c(c2)CC(=O)N3)ncc1C(F)(F)F)S(C)(=O)=O + CNC(=O)c1cc(Oc2ccc(NC(=O)Nc3ccc(Cl)c(C(F)(F)F)c3)cc2)ccn1 [sorafenib] (first compound 0.4 µM, partner dose 2 µM) | 83.6% | 78.1% | 93.4%
16 | CCCS(=O)(=O)Nc1ccc(F)c(C(=O)c2c[nH]c3ncc(Cl)cc23)c1F + O=C(CCCCCCC(=O)Nc1ccccc1)NO [vorinostat] (first compound 0.4 µM, partner dose 0.4 µM) | 81.2% | 125% | 98.5%
17 | CS(=O)(=O)c1ccc(C(=O)Nc2ccc(Cl)c(-c3ccccn3)c2)c(Cl)c1 [vismodegib] + Clc1ccc(Nc2nnc(Cc3ccncc3)c3ccccc23)cc1 [vatalanib] (first compound 5 µM, partner dose 10 µM) | 81.1% | 82.4% | 85.7%
18 | C=C(c1ccc(C(=O)O)cc1)c1cc2c(cc1C)C(C)(C)CCC2(C)C [Bexarotene] + NC(=O)Nc1cc(-c2cccc(F)c2)sc1C(=O)N[C@H]1CCCNC1 [AZD7762] (first compound 10 µM, partner dose 0.1 µM) | 62.6% | 102% | 55.6%
19 | NC1(c2ccc(-c3nc4ccn5c(=O)[nH]nc5c4cc3-c3ccccc3)cc2)CCC1 + COCC[n+]1c2c(n(Cc3cnccn3)c1C)C(=O)c1ccccc1C2=O [YM155] (first compound 2 µM, partner dose 0.002 µM) | 55.3% | 14.1% | 54.9%
20 | NC1(c2ccc(-c3nc4ccn5c(=O)[nH]nc5c4cc3-c3ccccc3)cc2)CCC1 + Cn1c(Nc2ccc(C(F)(F)F)cc2)nc2cc(Oc3ccnc(-c4ncc(C(F)(F)F)[nH]4)c3)ccc21 [CHIR265] (first compound 2 µM, partner dose 0.4 µM) | 53.3% | 57.9% | 67.7%
21 | CS(=O)(=O)c1ccc(C(=O)Nc2ccc(Cl)c(-c3ccccn3)c2)c(Cl)c1 [vismodegib] + O=C(CCCCCCC(=O)Nc1ccccc1)NO [vorinostat] (first compound 5 µM, partner dose 0.4 µM) | 79.6% | 78% | 124%
22 | C=C(c1ccc(C(=O)O)cc1)c1cc2c(cc1C)C(C)(C)CCC2(C)C [Bexarotene] + COc1ccc(Cl)c(Nc2nc3ccccc3nc2NS(=O)(=O)c2cccc(NC(=O)C(C)(C)N)c2)c1 [XL147] (first compound 10 µM, partner dose 4 µM) | 118% | 84% | 93%
23 | NC1(c2ccc(-c3nc4ccn5c(=O)[nH]nc5c4cc3-c3ccccc3)cc2)CCC1 + Nc1cccc2c1CN(C1CCC(=O)NC1=O)C2=O [lenalidomide] (first compound 2 µM, partner dose 5 µM) | 111% | 94.6% | 108%
24 | CN(c1ncccc1CNc1nc(Nc2ccc3c(c2)CC(=O)N3)ncc1C(F)(F)F)S(C)(=O)=O + C=CCNC1=C2C[C@@H](C)C[C@H](OC)[C@H](O)[C@@H](C)/C=C(\C)[C@H](OC(N)=O)[C@@H](OC)/C=C\C=C(/C)C(=O)NC(=CC1=O)C2=O [Tanespimycin] (first compound 0.4 µM, partner dose 0.01 µM) | 72.3% | 78.4% | 67.6%
25 | C=C(c1ccc(C(=O)O)cc1)c1cc2c(cc1C)C(C)(C)CCC2(C)C [Bexarotene] + Nc1ccn([C@@H]2O[C@H](CO)[C@@H](O)C2(F)F)c(=O)n1 [gemcitabine] (first compound 10 µM, partner dose 0.002 µM) | 69.3% | 53.4% | 90.2%
26 | NC1(c2ccc(-c3nc4ccn5c(=O)[nH]nc5c4cc3-c3ccccc3)cc2)CCC1 + Cc1ccc(NC(=O)c2cccc(N(C)C)c2)cc1NC(=O)c1ccc(O)cc1 [ZM336372] (first compound 2 µM, partner dose 10 µM) | 80.2% | 88.7% | 102%
27 | CCCS(=O)(=O)Nc1ccc(F)c(C(=O)c2c[nH]c3ncc(Cl)cc23)c1F + CC1(C)NC(=O)N(c2ccc([N+](=O)[O-])c(C(F)(F)F)c2)C1=O [nilutamide] (first compound 0.4 µM, partner dose 5 µM) | 66.9% | 113% | 97%
28 | NC1(c2ccc(-c3nc4ccn5c(=O)[nH]nc5c4cc3-c3ccccc3)cc2)CCC1 + Cn1nnc2c(C(N)=O)ncn2c1=O [temozolomide] (first compound 2 µM, partner dose 10 µM) | 77.2% | 32.9% | 101%
29 | C=C(c1ccc(C(=O)O)cc1)c1cc2c(cc1C)C(C)(C)CCC2(C)C [Bexarotene] + O=C(Nc1cccc(Cl)c1)Nc1ncc(CCNc2ncnc3ccsc23)s1 [SNS314] (first compound 10 µM, partner dose 0.004 µM) | 77.7% | 81.9% | 103%
30 | C=C(c1ccc(C(=O)O)cc1)c1cc2c(cc1C)C(C)(C)CCC2(C)C [Bexarotene] + CN(C)S(=O)(=O)c1ccc2c(c1)/C(=C/c1cc3c([nH]1)CCCC3)C(=O)N2 [SU6656] (first compound 10 µM, partner dose 2 µM) | 96% | 81.5% | 128%
